Test results reported in patent publication US20260055188A1 (SHENGHE CHINA BIOPHARMACEUTICAL, published 2026).
Blank lines part the entries; values can stand above or below the binder they belong to.

Columns and labels:
[1] = target: T1, Human-TNFR2-His (manufacturer: SINO, CAT: 10417-H08H) (human, UniProt P20333 23-257); experiment: flow cytometry, bridging: MCF-7 cells (human CD24) + 150 nM antibody + human TNFR2-His, anti-His FITC detection
T1 construct: Bought protein; also called human TNFR2 protein; TNFR2 protein; not shown: His tag
T1 sequence (looked up): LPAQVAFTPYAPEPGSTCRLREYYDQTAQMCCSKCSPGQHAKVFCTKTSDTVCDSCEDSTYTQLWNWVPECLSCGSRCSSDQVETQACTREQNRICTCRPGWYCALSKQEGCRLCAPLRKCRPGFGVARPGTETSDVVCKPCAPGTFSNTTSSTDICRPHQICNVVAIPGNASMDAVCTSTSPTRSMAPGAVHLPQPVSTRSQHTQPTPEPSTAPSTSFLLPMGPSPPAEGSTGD
Description: (§1) Pre-cooled dilution was added and washed once, centrifuged (3000 rpm, 3 min), and the supernatant was discarded, and the cells were harvested. Fluorescent secondary antibody Anti-6X-his tag antibody (FITC) (manufacturer: abcam, Cat. No.: ab1206, Lot No.: GR3420599-3) was taken and diluted at the used concentration of 1:500. 100 μL of dilution was added to the blank control group, and 100 μL of fluorescent secondary antibody dilution was added to the rest of the sample groups respectively. After incubation for 0.5 h at room temperature and 4° C. protected from light, PBS was added to wash and centrifuged (3000 rpm, 3 min) twice. After discarding the supernatant, 80 μL of the dilution was added and resuspended.

[2] = target: T1, Human-TNFR2-His (manufacturer: SINO, …); experiment: ELISA: Human-TNFR2-His coated (0.3 µg/mL), antibody titrated, goat anti-human IgG Fc detection, OD450 (Example 10)
Description: Human-TNFR2-His (manufacturer: SINO, CAT: 10417-H08H, LOT: LC12SE2902) was diluted to 0.3 μg/mL with a coating solution (1×PBS, pH7.4), and coated into a 96-well ELISA plate at 100 μL/well overnight at 4° C. The coating solution was poured off. Each well was washed with 1×PBST at 300 μL, washed 4 times with a plate washer, and patted dry on a flat paper. It was blocked with 3% skim milk powder at 300 μL/well, and incubated at 37° C. for 1 h. The blocking solution was poured off, washed 4 times with a plate washer, and patted dry on a flat paper. Negative control and positive control were set up. […] The positive control and antibody were diluted to 10 μg/mL with 3% skim milk powder as the starting concentration, and then diluted by 3-fold gradient (11 gradients in total). A blank well was set up and only the diluent was added. It was incubated at 37° C. for 1 h at 100 μL/well. The liquid in the well was discarded, washed 4 times with a plate washer, and patted dry on a flat paper. Goat anti-human IgG Fc was diluted with 3% skim milk powder at 1:20000, and incubated at 37° C. for 1 h at 100 μL/well. It was washed 6 times with a plate washer, and patted dry on a flat paper. TMB color developing solution was added at 100 μL/well, and wrapped with aluminum foil. Color development was performed at 37° C. in the dark for 8 min. Termination solution 1M HCl was added to terminate the color development reaction at 100 μL/well. Readings were taken at 450 nm on an ELISA reader.

[3] = target: T1, Human-TNFR2-His (manufacturer: SINO, …); experiment: BLI, antibody on AHC sensor, 100 nM human-TNFR2-His in solution
Description: The AHC sensor was soaked in 0.02% PBST (0.02% Tween 20, pH 7.4, 1×PBS) as a buffer for 600 s to remove the sucrose covering the sensor surface. The AHC sensor was equilibrated with 0.02% PBST (0.02% Tween 20, pH 7.4, 1×PBS) as a buffer for 60 s, the antibody in the sample plate was solidified for 300 s, and the secondary equilibration buffer was used for 180 s. 100 nM human-TNFR2-His (manufacturer: SINO, CAT: 10417-H08H, LOT: LC12SE2902) protein was bound to the antibody for 300 s and then dissociated for 600 s. After dissociation, 10 mM glycine (pH 2.0) was used as a regeneration buffer for 30 s. The sensor was regenerated with 10 mM glycine (pH 2.0).

[4] = target: T2, human CD24 on MCF-7 tumor cells (human, UniProt P25063 27-59); experiment: flow cytometry on MCF-7 cells, 150 nM antibody, anti-human IgG Fc detection
T2 construct: whole, on cells; also called CD24 protein; MCF-7 tumor cells with high expression of human CD24
T2 chain (looked up): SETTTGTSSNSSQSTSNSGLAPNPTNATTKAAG
Description: 100 μL of dilution was added to the blank control group, and 100 μL of fluorescent secondary antibody dilution was added to the rest of the sample groups respectively. After incubation for 0.5 h at room temperature and 4° C. protected from light, PBS was added to wash and centrifuged (3000 rpm, 3 min) twice. After discarding the supernatant, 80 μL of the dilution was added and resuspended.

[5] = target: T1, Human-TNFR2-His (manufacturer: SINO, …); experiment: flow cytometry, bridging: CHOK1-18.2 cells (human Claudin18.2) + 150 nM antibody + human TNFR2-His, anti-His FITC detection
Description: as §1, with “Human TNFR2 protein (SINO, CAT: 10417-H08H) was sequentially added into 96-well plate with 100 μL/well, and after mixing, the 96-well plate was incubated at 4° C. for 1 h. Pre-cooled” for “Pre-cooled”

B1: TD-A1 (bispecific antibody, human IgG1, kappa)
light: DIVMTQSPSSLAVSLGERATINCKSSQSLLYSNDQKNYLAWYQQKPGQSPKLLIYWASTRESGVPDRFSGSGSGTDFTLTISSLQAEDVAVYYCQQYFIYPLTFGGGTKLELKRTVAAPSVFIFPPSDEQLKSGTASVVCLLNNFYPREAKVQWKVDNALQSGNSQESVTEQDSKDSTYSLSSTLTLSKADYEKHKVYACEVTHQGLSSPVTKSFNRGEC
heavy: EVQLQESGPGLVKPSQTLSLTCTVSGYSITSGYTWHWIRQFPGNKLEWIGHIQYTGNTKYNPSLESRITISRDTSKNQFSLKLSSVTAADTATYYCARGSTNSNDYWGQGTLVTVSS[not shown - human IgG1 constant region]GGGGSGGGGSGGGGSEVQLVQSGAEVKKPGATVKISCKVSGYSITDYLLHWVQQAPGKCLEWMGWIDPEDAKTKYGQKFQSRVTITADTSTDTAYMELSSLRSEDTAVYYCAANSGTGTMDAWGQGTLVTVSSGGGGSGGGGSGGGGSDIVMTQSPATLSVSPGERATLSCKASQNVGSNVDWYQQKPGQSPRVLIYKASIRYTGIPARFSGSGSGTEFTLTISILQSEDFAVYFCMQSKSYPITFGCGTKLEIK
notes: also called antibody TD-A1
E1 Mean FITC-A [1]: 7.23e+06
EC50 (read off the curve) [2]: ~0.4 nM
Kd [3]: 0.523 nM
koff [3]: 0.000123 s⁻¹
kon [3]: 236000 M⁻¹ s⁻¹
E1 Mean PE-A [4]: 3.28e+06

B5: TC-A1 (bispecific antibody, human IgG1, kappa)
light: DIVMTQSPSSLAVSLGERATINCKSSQSLLQSGNQKNYLTWYQQKPGQPPKLLIYWASTRESGVPDRFSGSGSGTDFTLTISSLQAEDVAVYYCQNNYIFPLTFGQGTKLEIKRTVAAPSVFIFPPSDEQLKSGTASVVCLLNNFYPREAKVQWKVDNALQSGNSQESVTEQDSKDSTYSLSSTLTLSKADYEKHKVYACEVTHQGLSSPVTKSFNRGEC
heavy: QVQLVQSGAEVKKPGASVKVSCKASGYTFTSYWMHWVRQAPGQRLEWMGSIESNSAGTKYDERFKTRVTITRDTSASTAYMELSSLRSEDTAVYYCARFYYGNSFAYWGQGTLVTVSS[not shown - human IgG1 constant region]GGGGSGGGGSGGGGSEVQLVQSGAEVKKPGATVKISCKVSGYSITDYLLHWVQQAPGKCLEWMGWIDPEDAKTKYGQKFQSRVTITADTSTDTAYMELSSLRSEDTAVYYCAANSGTGTMDAWGQGTLVTVSSGGGGSGGGGSGGGGSDIVMTQSPATLSVSPGERATLSCKASQNVGSNVDWYQQKPGQSPRVLIYKASIRYTGIPARFSGSGSGTEFTLTISILQSEDFAVYFCMQSKSYPITFGCGTKLEIK
E1 Mean FITC-A [5]: 281000

Now from value to binder:

EC50 (read off the curve) [2]: ~0.5 nM
B2: TD-A2 (bispecific antibody, human IgG4 S228P, kappa)
light: DIVMTQSPSSLAVSLGERATINCKSSQSLLYSNDQKNYLAWYQQKPGQSPKLLIYWASTRESGVPDRFSGSGSGTDFTLTISSLQAEDVAVYYCQQYFIYPLTFGGGTKLELKRTVAAPSVFIFPPSDEQLKSGTASVVCLLNNFYPREAKVQWKVDNALQSGNSQESVTEQDSKDSTYSLSSTLTLSKADYEKHKVYACEVTHQGLSSPVTKSFNRGEC
heavy: EVQLQESGPGLVKPSQTLSLTCTVSGYSITSGYTWHWIRQFPGNKLEWIGHIQYTGNTKYNPSLESRITISRDTSKNQFSLKLSSVTAADTATYYCARGSTNSNDYWGQGTLVTVSSASTKGPSVFPLAPCSRSTSESTAALGCLVKDYFPEPVTVSWNSGALTSGVHTFPAVLQSSGLYSLSSVVTVPSSSLGTKTYTCNVDHKPSNTKVDKRV[not shown - human IgG4 Fc with S228P (EU numbers)]GGGGSGGGGSGGGGSEVQLVQSGAEVKKPGATVKISCKVSGYSITDYLLHWVQQAPGKCLEWMGWIDPEDAKTKYGQKFQSRVTITADTSTDTAYMELSSLRSEDTAVYYCAANSGTGTMDAWGQGTLVTVSSGGGGSGGGGSGGGGSDIVMTQSPATLSVSPGERATLSCKASQNVGSNVDWYQQKPGQSPRVLIYKASIRYTGIPARFSGSGSGTEFTLTISILQSEDFAVYFCMQSKSYPITFGCGTKLEIK
notes: also called antibody TD-A2

E1 Mean FITC-A [1]: 6.32e+06
EC50 (read off the curve) [2]: ~0.07 nM
Kd [3]: 1.44 nM
koff [3]: 0.000667 s⁻¹
kon [3]: 464000 M⁻¹ s⁻¹
E1 Mean PE-A [4]: 4.03e+06
B3: TD-D1 (bispecific antibody, human IgG1, kappa)
light: DIVMTQSPSSLAVSLGERATINCKSSQSLLYSNDQKNYLAWYQQKPGQSPKLLIYWASTRESGVPDRFSGSGSGTDFTLTISSLQAEDVAVYYCQQYFIYPLTFGGGTKLELKRTVAAPSVFIFPPSDEQLKSGTASVVCLLNNFYPREAKVQWKVDNALQSGNSQESVTEQDSKDSTYSLSSTLTLSKADYEKHKVYACEVTHQGLSSPVTKSFNRGEC
heavy: EVQLVESGGGLVQPGGSLRLSCAASGSRLDYYAVAWFRQAPGKEREEVSCITYSGGSTNYAESVKGRFTISRDNSKNTLYLQMNSLRAEDTAVYYCTTEPYGSSCPLSGYDTWGQGTLVTVSSGGGGSGGGGSGGGGSEVQLQESGPGLVKPSQTLSLTCTVSGYSITSGYTWHWIRQFPGNKLEWIGHIQYTGNTKYNPSLESRITISRDTSKNQFSLKLSSVTAADTATYYCARGSTNSNDYWGQGTLVTVSS[not shown - human IgG1 constant region]
notes: also called antibody TD-D1

EC50 (read off the curve) [2]: ~0.1 nM
B4: TD-D2 (bispecific antibody, human IgG4 S228P, kappa)
light: DIVMTQSPSSLAVSLGERATINCKSSQSLLYSNDQKNYLAWYQQKPGQSPKLLIYWASTRESGVPDRFSGSGSGTDFTLTISSLQAEDVAVYYCQQYFIYPLTFGGGTKLELKRTVAAPSVFIFPPSDEQLKSGTASVVCLLNNFYPREAKVQWKVDNALQSGNSQESVTEQDSKDSTYSLSSTLTLSKADYEKHKVYACEVTHQGLSSPVTKSFNRGEC
heavy: EVQLVESGGGLVQPGGSLRLSCAASGSRLDYYAVAWFRQAPGKEREEVSCITYSGGSTNYAESVKGRFTISRDNSKNTLYLQMNSLRAEDTAVYYCTTEPYGSSCPLSGYDTWGQGTLVTVSSGGGGSGGGGSGGGGSEVQLQESGPGLVKPSQTLSLTCTVSGYSITSGYTWHWIRQFPGNKLEWIGHIQYTGNTKYNPSLESRITISRDTSKNQFSLKLSSVTAADTATYYCARGSTNSNDYWGQGTLVTVSSASTKGPSVFPLAPCSRSTSESTAALGCLVKDYFPEPVTVSWNSGALTSGVHTFPAVLQSSGLYSLSSVVTVPSSSLGTKTYTCNVDHKPSNTKVDKRV[not shown - human IgG4 Fc with S228P (EU numbers)]
notes: also called antibody TD-D2
